# Experimental data from the supplement of paper PMC8728848.
# The list shows a part of the results.
# B1: Banana lectin (Musa acuminata) (protein)
# chain: MNGAIKVGAWGGNGGSAFDMGPAYRIISVKIFSGDVVDGVDVTFTYYGKTETRHYGGSGGTPHEIVLQEGEYLVGMAGEVANYHGAVVLGKLGFSTNKKAYGPFGNTGGTPFSLPIAAGKISGFFGRGGKFLDAIGVYLEPLEHHHHHH
# Columns and labels:
# Assay in all cases: glycan array binding signal (z-score within array); higher = stronger binding
# Details in all cases: glycan notation: IUPAC condensed, linker removed
# [1] = biological target: GlcNAc(b1-2)Man(a1-3)[GlcNAc(b1-2)Man(a1-6)]Man(b1-4)GlcNAc(b1-4)[Fuc(a1-6)]GlcNAc
# Method in brief: (§1)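 The Consortium for Functional Glycomics database supplied 3228 glycan arrays, of which those lacking an available protein sequence were dropped. The binding signal, a within-array Z-score, was averaged across arrays of the same protein sequence and across linkers. Negative scores can be read as non-binding.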
# [2] = biological target: GlcNAc(b1-2)Man(a1-3)[GlcNAc(b1-2)Man(a1-6)][GlcNAc(b1-4)]Man(b1-4)GlcNAc(b1-4)GlcNAc
# Method in brief: as §1
# [3] = biological target: GlcNAc(b1-2)Man(a1-3)[GlcNAc(b1-4)][GlcNAc(b1-2)Man(a1-6)]Man(b1-4)GlcNAc(b1-4)GlcNAc
# Method in brief: as §1
# [4] = biological target: GlcNAc(b1-2)Man(a1-3)[GlcNAc(b1-4)][GlcNAc(b1-2)Man(a1-6)]Man(b1-4)GlcNAc(b1-4)[Fuc(a1-6)]GlcNAc
# Method in brief: as §1
# [5] = biological target: GlcNAc(b1-2)Man(a1-3)[Man(a1-3)[Man(a1-6)]Man(a1-6)][GlcNAc(b1-4)]Man(b1-4)GlcNAc(b1-4)GlcNAc
# Method in brief: as §1
# [6] = biological target: GlcNAc(b1-2)[GlcNAc(b1-4)]Man(a1-3)[GlcNAc(b1-2)Man(a1-6)]Man(b1-4)GlcNAc(b1-4)GlcNAc
# Method in brief: as §1
# [7] = biological target: GlcNAc(b1-2)[GlcNAc(b1-4)]Man(a1-3)[GlcNAc(b1-2)Man(a1-6)][GlcNAc(b1-4)]Man(b1-4)GlcNAc(b1-4)GlcNAc
# Method in brief: as §1
# [8] = biological target: GlcNAc(b1-2)[GlcNAc(b1-4)]Man(a1-3)[GlcNAc(b1-2)[GlcNAc(b1-4)][GlcNAc(b1-6)]Man(a1-6)][GlcNAc(b1-4)]Man(b1-4)GlcNAc(b1-4)GlcNAc
# Method in brief: as §1
# [9] = biological target: GlcNAc(b1-2)[GlcNAc(b1-4)]Man(a1-3)[GlcNAc(b1-2)[GlcNAc(b1-6)]Man(a1-6)]Man(b1-4)GlcNAc(b1-4)GlcNAc
# Method in brief: as §1
# [10] = biological target: GlcNAc(b1-2)[GlcNAc(b1-4)]Man(a1-3)[GlcNAc(b1-4)][GlcNAc(b1-2)Man(a1-6)]Man(b1-4)GlcNAc(b1-4)GlcNAc
# Method in brief: as §1
# [11] = biological target: GlcNAc(b1-2)[GlcNAc(b1-4)]Man(a1-3)[GlcNAc(b1-4)][GlcNAc(b1-2)[GlcNAc(b1-6)]Man(a1-6)]Man(b1-4)GlcNAc(b1-4)GlcNAc
# Method in brief: as §1
# [12] = biological target: GlcNAc(b1-2)[GlcNAc(b1-4)]Man(a1-3)[GlcNAc(b1-4)][GlcNAc(b1-2)[GlcNAc(b1-6)]Man(a1-6)]Man(b1-4)GlcNAc(b1-4)[Fuc(a1-6)]GlcNAc
# Method in brief: as §1
# [13] = biological target: GlcNAc(b1-2)[GlcNAc(b1-6)]Man(a1-6)[GlcNAc(b1-2)Man(a1-3)]Man(b1-4)GlcNAc(b1-4)GlcNAc
# Method in brief: as §1
# [14] = biological target: GlcNAc(b1-2)[GlcNAc(b1-6)]Man(a1-6)[GlcNAc(b1-2)Man(a1-3)]Man(b1-4)GlcNAc(b1-4)[Fuc(a1-6)]GlcNAc
# Method in brief: as §1
# [15] = biological target: GlcNAc(b1-2)[GlcNAc(b1-6)]Man(a1-6)[GlcNAc(b1-4)][GlcNAc(b1-2)Man(a1-3)]Man(b1-4)GlcNAc(b1-4)GlcNAc
# Method in brief: as §1
# [16] = biological target: GlcNAc(b1-3)Fuc
# Method in brief: as §1
# [17] = biological target: GlcNAc(b1-3)Gal
# Method in brief: as §1
# [18] = biological target: GlcNAc(b1-3)Gal(b1-3)GalNAc
# Method in brief: as §1
# [19] = biological target: GlcNAc(b1-3)Gal(b1-4)Glc
# Method in brief: as §1
# [20] = biological target: GlcNAc(b1-3)Gal(b1-4)GlcNAc
# Method in brief: as §1
# [21] = biological target: GlcNAc(b1-3)Gal(b1-4)GlcNAc(b1-2)Man(a1-3)[GlcNAc(b1-3)Gal(b1-4)GlcNAc(b1-2)Man(a1-6)]Man(b1-4)GlcNAc(b1-4)GlcNAc
# Method in brief: as §1
# [22] = biological target: GlcNAc(b1-3)Gal(b1-4)GlcNAc(b1-2)Man(a1-3)[GlcNAc(b1-3)Gal(b1-4)GlcNAc(b1-2)Man(a1-6)]Man(b1-4)GlcNAc(b1-4)[Fuc(a1-6)]GlcNAc
# Method in brief: as §1
binder,measurement,setting,value
B1,glycan array binding signal (z-score),[1],-0.327
same,glycan array binding signal (z-score),[2],-0.653
same,glycan array binding signal (z-score),[3],-0.209
same,glycan array binding signal (z-score),[4],-0.216
same,glycan array binding signal (z-score),[5],-0.039
same,glycan array binding signal (z-score),[6],-0.204
same,glycan array binding signal (z-score),[7],-0.975
same,glycan array binding signal (z-score),[8],-0.99
same,glycan array binding signal (z-score),[9],-0.985
same,glycan array binding signal (z-score),[10],-0.206
same,glycan array binding signal (z-score),[11],-0.157
same,glycan array binding signal (z-score),[12],-0.22
same,glycan array binding signal (z-score),[13],-0.095
same,glycan array binding signal (z-score),[14],-0.141
same,glycan array binding signal (z-score),[15],-0.168
same,glycan array binding signal (z-score),[16],-0.208
same,glycan array binding signal (z-score),[17],-0.178
same,glycan array binding signal (z-score),[18],-0.187
same,glycan array binding signal (z-score),[19],-0.206
same,glycan array binding signal (z-score),[20],-0.212
same,glycan array binding signal (z-score),[21],-0.123
same,glycan array binding signal (z-score),[22],-0.127
